In the RNAGym collection of RNA variant scans (doi:10.7554/elife.90254):
Read counts are not given, so values of variants with three or more changes are uncertain.

B1: OR4K15 (parent)
chain: GUUAACGGUCAUAGGCCAUGGAAACUAGGAGCACCAUUUCGCUGCCAGUGAAGAAAUGAACAAAGAAAAUCUGGGCCAGGCAGGCAUCAAAAGAAAUAGUCUUGCGCUCAACCAGAAAGUCUGUAAUCAUUUUAAGGGUA

Variants of: B1
Assay: self-cleavage, relative activity (ratio to wild type); higher = more cleavage; in vitro, sequencing; the parent is a self-cleaving ribozyme

| Variant | self-cleavage |
| --- | --- |
| U37C U38C A55G A78G A89G | 0.2 |
| U37C A89U A126G | 1.55 |
| U37G A111G U124C | 0.01 |
| A36U U70C A125G U127C | 0 |
| U38A A52G A86G A92G U100C A111G | 0.02 |
| U37C A54G A63G | 1.98 |
| A36G G75A U139C | 0.13 |
| U38A G48A A126U U127C | 0.66 |
| U37C U38A A95G U108A | 0.01 |
| U37C U127C U133C | 0.84 |
| U38C A55U U87A A96G U108C | 0.01 |
| A36C A78G U108G U122C | 0.01 |
| U37C G75C U122C | 0.11 |
| A36U A98G A140G | 0.42 |
| A36G U37C A111U | 0.07 |
| A36U U39C A78C | 0.33 |
| U38A G50A A52G | 1.63 |
| A36G A59G A118G | 1.42 |
| A36G A67G A114G | 0.22 |
| U37C A56G A67C | 2.06 |
| U37C U38C A60U A92G U108C | 0.02 |
| U37C U102C U122C A129G | 1.79 |
| A36C C42U A67C A78G A91G | 0.12 |
| A36G A96C U103G | 0 |

| Variant | self-cleavage |
| --- | --- |
| U38C A51G A82U | 0.21 |
| U38A A95G A114G A118G U127A | 0.44 |
| U37C A69G U122C | 0.7 |
| A36C A114G A129U | 0.09 |
| U37C A54G U57C A66G | 0.1 |
| U37C U103C U132C | 0.86 |
| U37C A67G U102C | 1.13 |
| A36U U57C A59G U130C | 0.95 |
| A36G U108C U139A | 0.01 |
| U37C U43C A89G A126C | 0.56 |
| C35U U49A A125G | 0.18 |
| U37C A55G A62G C76U A117G U122C U139A | 0.09 |
| U38A A114G A118G | 0.14 |
| U38C A51G A110G | 0.14 |
| A36U A63U A135G | 2.16 |
| A36G A69G A90G | 1.81 |
| U38C A55G U130A | 1.56 |
| U38C A47G U139C | 1.42 |
| U38C A51G A56G A118U | 0.69 |
| U37C A60G U108C | 0.01 |
| A36G A59U A91G U108C U127C | 0.01 |
| U37C U39A U103C A118U | 0.16 |
| A36U U39C A47G | 1.18 |
| A36U G65A U127C U130C | 0.46 |

| Variant | self-cleavage |
| --- | --- |
| U37C A91U A114G | 0.15 |
| A36G U39C A56C U72A | 0.2 |
| U37C A89C U131G | 0.32 |
| A36U A89G A90G U103A | 0.43 |
| A36C A110G A114G A118G U124C | 0.01 |
| U37C U39C A125G | 0.64 |
| U38C A47G A54G A67G | 0.94 |
| A36G U43C A51U A56G | 1.79 |
| U37C A86G A94G U127C | 0.75 |
| U38A A56G U108C U120C | 0 |
| U38C A55G A94G U131C | 2.12 |
| U37C A52G A111G | 0.04 |
| U37C G75A A114U | 0.04 |
| U38C A59G U70A U100A A111G | 0 |
| U37C A60G A62G A117G | 1.18 |
| U38A A51G A78U A92G U127C | 0.09 |
| U37C A86G A94G | 0.79 |
| U38C A51G A129G | 0.16 |
| U37C U43A A135C | 1.82 |
| U37C A114G A125G | 0.13 |
| A36U A86U A118C | 1.11 |
| A36U A66U A118G | 1.17 |
| A36U U49A G138U | 0.27 |
| A36G A62G A135G | 2.26 |

| Variant | self-cleavage |
| --- | --- |
| A36C A116G A126U | 1.27 |
| U37C U49C U131C | 1.1 |
| A36U A52G U120C | 0.6 |
| A36U C101U A116G | 0.08 |
| A36G A47U A51U | 1.46 |
| U37C A47G A59U A111G | 0.02 |
| U38C A56G A59U | 1.37 |
| A36U U38C A96G | 1.3 |
| U37C A59G A69C | 1.07 |
| A36C A47G U124C U130C | 0.13 |
| A36U A56G U57G A60G A140G | 1.45 |
| U38A A67G A111G A118G | 0.1 |
| U37C A67U U127A | 2.73 |
| A36U A66G A78U A82G A91G | 0.04 |
| U37C A54U A60G A111U | 0.09 |
| A36U U43C A92G U131C | 0.86 |
| U37A A60G A66G A91G | 1.37 |
| U37C A52G A66U A98U | 1.76 |
| U37G A51G A92G | 1.73 |
| U38C A56G A126G | 2.18 |
| C35U U38C A52G A55G A64G | 0.37 |
| A36G A59G A86G U124C | 0.42 |
| U37C A94U U122C U130C | 0.62 |
| A36C A111G A116G | 0.01 |

| Variant | self-cleavage |
| --- | --- |
| U37C U39C A47G U70C | 1.28 |
| A36G G41A A51G | 1.63 |
| A36G A117G U122A | 2.36 |
| U37C U38C A90G U120C U122C | 0.57 |
| U37C A56U U87C A92G | 1.02 |
| A36G A51G A62C A95G | 1.07 |
| U38A G84A U103A A116G | 0.38 |
| A36U A54G A117G | 1.09 |
| U37C A55G A59G G137A | 0.77 |
| U38C A51G G83A U132C | 2.11 |
| A36C A96G U133C | 2.18 |
| A36G A55G C107U | 0.03 |
| U37C U108A U120A A135U | 0 |
| A36G A64U A114U | 0.04 |
| U37C A52U A110G | 0.15 |
| U38C A54C A63G A68G U70C A95G | 0.4 |
| U37C U38C U49C U72A U139C | 0.29 |
| U37C C61U A67G A114G | 0.18 |
| U37C A95G U103C | 1.59 |
| U37C A60U U103C U120C | 0.43 |
| A36U A94G A111C | 0 |
| A36G U70A A91G A117G | 0.66 |
| U37C A82G A129G | 0.49 |
| U38A U72A G79U | 0.16 |

| Variant | self-cleavage |
| --- | --- |
| U37C A59G U131C | 1.43 |
| U37A A64G U127C | 0.54 |
| A36G A51U U100C | 1.81 |
| A36G U49C C77A | 0.89 |
| U37C A78G A118G | 0.29 |
| U37C A56G A60G A67G | 0.81 |
| U38C A52U A62G A68G A78G A91G A117G U131C A135G | 0.05 |
| A36U U43C A52G U57A | 1.37 |
| U37C A63G A95G | 1.33 |
| U37C A95U U100C | 2.92 |
| U37C A52G A62U A78G A135U | 0.12 |
| U38A C46U U72A | 0.37 |
| U38C A47G A60G | 0.53 |
| U38A A51G A63G A64U U103C A117G G119A | 1.55 |
| A36G A52G U122C | 1 |
| U37C A52U U103C | 1.44 |
| U38A U87C A111G U122C | 0 |
| U37C A117G U120C A135U | 0.94 |
| U37G A60G A67U A69G A94G A114U | 0.02 |
| A36U U43A A56G U57C A140G | 1.46 |
| A36U A59G A63G A111G G138A | 0.07 |
| A36G U122A U133A | 0.18 |
| U38C A51U A117G | 2 |
| A36G G48A U87A U124A | 1.15 |

| Variant | self-cleavage |
| --- | --- |
| U37C A82G U130C | 0.33 |
| U38A A56G C71U A89G | 0.35 |
| U37C G79A A90G | 0.03 |
| U37C A92G G123A | 1.84 |
| U37A A52G A68G A135G | 2.81 |
| U38C A55G G58U A134G | 1.47 |
| U38C A59G U97C | 1.19 |
| U38C A51G A62U A117G | 1.81 |
| U37C A67U C77U | 2.01 |
| A36G A78G A95C | 0.1 |
| A36U U43C A118G | 1.78 |
| A36U A64G A67G | 1.37 |
| U37G U39A A69G | 1.09 |
| A36U U37C U38C U139C | 1.03 |
| A36G A51U A117G | 2.19 |
| U38C A51C A82G A118U | 0.23 |
| U37G U38C A51G | 0.74 |
| U38C A54G U57C A63G A94U | 1.49 |
| A36U U39A A52G | 1.29 |
| U37A U43A A94G A98G A114G U127C | 0.2 |
| A36G A55G U103C A114U A135G | 0.05 |
| A36G A78C A92C A116G U127A | 0.15 |
| U37C U43C A68G A69G A116G | 0.29 |
